{"source": "the supplement of paper PMC8728848", "binders": {"B1": {"name": "MGL (Homo sapiens), Q8IUN9 (protein)", "chain": "MTRTYENFQYLENKVKVQGFKNGPLPLQSLLQRLCSGPCHLLLSLGLGLLLLVIICVVGFQNSKFQRDLVTLRTDFSNFTSNTVAEIQALTSQGSSLEETIASLKAEVEGFKQERQAGVSELQEHTTQKAHLGHCPHCPSVCVPVHSEMLLRVQQLVQDLKKLTCQVATLNNNASTEGTCCPVNWVEHQDSCYWFSHSGMSWAEAEKYCQLKNAHLVVINSREEQNFVQKYLGSAYTWMGLSDPEGAWKWVDGTDYATGFQNWKPGQPDDWQGHGLGGGEDCAHFHPDGRWNDDVCQRPYHWVCEAGLGQTSQESH"}}, "assay_in_all_cases": "glycan array binding signal (z-score within array); higher = stronger binding", "conditions_in_all_cases": "glycan notation: IUPAC condensed, linker removed", "key": {"[1]": {"molecular_target": "GlcNAc(a1-6)Gal(b1-4)GlcNAc", "how_it_was_run": "(§1)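 From the Consortium for Functional Glycomics database, 3228 arrays were curated, keeping only those whose protein sequence was available. Binding is given as a within-array Z-score averaged across arrays sharing a protein sequence and across linkers. Negative Z-scores can be read as non-binding.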"}, "[2]": {"molecular_target": "GlcNAc(b1-2)Gal(b1-3)GalNAc", "how_it_was_run": "as §1"}, "[3]": {"molecular_target": "GlcNAc(b1-2)Man(a1-3)[GlcNAc(b1-2)Man(a1-6)]Man(b1-4)GlcNAc(b1-4)GlcNAc", "how_it_was_run": "as §1"}, "[4]": {"molecular_target": "GlcNAc(b1-2)Man(a1-3)[GlcNAc(b1-2)Man(a1-6)]Man(b1-4)GlcNAc(b1-4)[Fuc(a1-6)]GlcNAc", "how_it_was_run": "as §1"}, "[5]": {"molecular_target": "GlcNAc(b1-2)Man(a1-3)[GlcNAc(b1-4)][GlcNAc(b1-2)Man(a1-6)]Man(b1-4)GlcNAc(b1-4)GlcNAc", "how_it_was_run": "as §1"}, "[6]": {"molecular_target": "GlcNAc(b1-2)Man(a1-3)[GlcNAc(b1-4)][GlcNAc(b1-2)Man(a1-6)]Man(b1-4)GlcNAc(b1-4)[Fuc(a1-6)]GlcNAc", "how_it_was_run": "as §1"}, "[7]": {"molecular_target": "GlcNAc(b1-2)[GlcNAc(b1-4)]Man(a1-3)[GlcNAc(b1-2)Man(a1-6)]Man(b1-4)GlcNAc(b1-4)GlcNAc", "how_it_was_run": "as §1"}, "[8]": {"molecular_target": "GlcNAc(b1-2)[GlcNAc(b1-4)]Man(a1-3)[GlcNAc(b1-4)][GlcNAc(b1-2)Man(a1-6)]Man(b1-4)GlcNAc(b1-4)GlcNAc", "how_it_was_run": "as §1"}, "[9]": {"molecular_target": "GlcNAc(b1-2)[GlcNAc(b1-4)]Man(a1-3)[GlcNAc(b1-4)][GlcNAc(b1-2)[GlcNAc(b1-6)]Man(a1-6)]Man(b1-4)GlcNAc(b1-4)GlcNAc", "how_it_was_run": "as §1"}, "[10]": {"molecular_target": "GlcNAc(b1-2)[GlcNAc(b1-4)]Man(a1-3)[GlcNAc(b1-4)][GlcNAc(b1-2)[GlcNAc(b1-6)]Man(a1-6)]Man(b1-4)GlcNAc(b1-4)[Fuc(a1-6)]GlcNAc", "how_it_was_run": "as §1"}, "[11]": {"molecular_target": "GlcNAc(b1-2)[GlcNAc(b1-6)]Man(a1-6)[GlcNAc(b1-2)Man(a1-3)]Man(b1-4)GlcNAc(b1-4)GlcNAc", "how_it_was_run": "as §1"}, "[12]": {"molecular_target": "GlcNAc(b1-2)[GlcNAc(b1-6)]Man(a1-6)[GlcNAc(b1-2)Man(a1-3)]Man(b1-4)GlcNAc(b1-4)[Fuc(a1-6)]GlcNAc", "how_it_was_run": "as §1"}, "[13]": {"molecular_target": "GlcNAc(b1-2)[GlcNAc(b1-6)]Man(a1-6)[GlcNAc(b1-4)][GlcNAc(b1-2)Man(a1-3)]Man(b1-4)GlcNAc(b1-4)GlcNAc", "how_it_was_run": "as §1"}, "GlcNAc(b1-3)Fuc": {"molecular_target": "GlcNAc(b1-3)Fuc", "how_it_was_run": "as §1"}, "GlcNAc(b1-3)Gal": {"molecular_target": "GlcNAc(b1-3)Gal", "how_it_was_run": "as §1"}, "[14]": {"molecular_target": "GlcNAc(b1-3)Gal(b1-3)GalNAc", "how_it_was_run": "as §1"}, "GlcNAc(b1-3)Gal(b1-4)Glc": {"molecular_target": "GlcNAc(b1-3)Gal(b1-4)Glc", "how_it_was_run": "as §1"}, "[15]": {"molecular_target": "GlcNAc(b1-3)Gal(b1-4)GlcNAc", "how_it_was_run": "as §1"}, "[16]": {"molecular_target": "GlcNAc(b1-3)Gal(b1-4)GlcNAc(b1-2)Man(a1-3)[GlcNAc(b1-3)Gal(b1-4)GlcNAc(b1-2)Man(a1-6)]Man(b1-4)GlcNAc(b1-4)GlcNAc", "how_it_was_run": "as §1"}, "[17]": {"molecular_target": "GlcNAc(b1-3)Gal(b1-4)GlcNAc(b1-2)Man(a1-3)[GlcNAc(b1-3)Gal(b1-4)GlcNAc(b1-2)Man(a1-6)]Man(b1-4)GlcNAc(b1-4)[Fuc(a1-6)]GlcNAc", "how_it_was_run": "as §1"}, "[18]": {"molecular_target": "GlcNAc(b1-3)Gal(b1-4)GlcNAc(b1-2)[GlcNAc(b1-3)Gal(b1-4)GlcNAc(b1-6)]Man(a1-6)[GlcNAc(b1-3)Gal(b1-4)GlcNAc(b1-2)Man(a1-3)]Man(b1-4)GlcNAc(b1-4)GlcNAc", "how_it_was_run": "as §1"}, "[19]": {"molecular_target": "GlcNAc(b1-3)Gal(b1-4)GlcNAc(b1-3)Gal(b1-4)GlcNAc", "how_it_was_run": "as §1"}}, "note": "This is one part of the list.", "data": [{"binder": "B1", "values": [{"measurement": "glycan array binding signal (z-score)", "setting": "[1]", "value": -0.233}, {"measurement": "glycan array binding signal (z-score)", "setting": "[2]", "value": -0.243}, {"measurement": "glycan array binding signal (z-score)", "setting": "[3]", "value": -0.245}, {"measurement": "glycan array binding signal (z-score)", "setting": "[4]", "value": -0.242}, {"measurement": "glycan array binding signal (z-score)", "setting": "[5]", "value": -0.25}, {"measurement": "glycan array binding signal (z-score)", "setting": "[6]", "value": -0.241}, {"measurement": "glycan array binding signal (z-score)", "setting": "[7]", "value": -0.251}, {"measurement": "glycan array binding signal (z-score)", "setting": "[8]", "value": -0.249}, {"measurement": "glycan array binding signal (z-score)", "setting": "[9]", "value": -0.246}, {"measurement": "glycan array binding signal (z-score)", "setting": "[10]", "value": -0.238}, {"measurement": "glycan array binding signal (z-score)", "setting": "[11]", "value": -0.24}, {"measurement": "glycan array binding signal (z-score)", "setting": "[12]", "value": -0.249}, {"measurement": "glycan array binding signal (z-score)", "setting": "[13]", "value": -0.246}, {"measurement": "glycan array binding signal (z-score)", "setting": "GlcNAc(b1-3)Fuc", "value": -0.24}, {"measurement": "glycan array binding signal (z-score)", "setting": "GlcNAc(b1-3)Gal", "value": -0.248}, {"measurement": "glycan array binding signal (z-score)", "setting": "[14]", "value": -0.232}, {"measurement": "glycan array binding signal (z-score)", "setting": "GlcNAc(b1-3)Gal(b1-4)Glc", "value": -0.24}, {"measurement": "glycan array binding signal (z-score)", "setting": "[15]", "value": -0.32}, {"measurement": "glycan array binding signal (z-score)", "setting": "[16]", "value": -0.24}, {"measurement": "glycan array binding signal (z-score)", "setting": "[17]", "value": -0.244}, {"measurement": "glycan array binding signal (z-score)", "setting": "[18]", "value": -0.152}, {"measurement": "glycan array binding signal (z-score)", "setting": "[19]", "value": -0.239}]}]}
